Results from the RNAGym collection of RNA variant scans (doi:10.1093/nar/gkz1192).
The source gives no read counts; variants with many changes may rest on few reads.

B1: CPEB3 Ribozyme (parent)
chain: UAACAGGGGGCCACAGCAGAAGCGUUCACGUCGCAGCCCCUGUCAGAUUCUGGUGAAUCUGCGAAUUCUGCUGUAUAUCUC

Variants of: B1
Assay: self-cleavage, relative activity (ratio to wild type); higher = more cleavage; in vitro, sequencing
Method in brief: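 Barcoded CPEB3 ribozyme mutants, produced by rounds of error-prone PCR, self-cleaved while being transcribed with T7 RNA polymerase for 5 hours at 37°C and during a subsequent 15 min DNase I step before EDTA was added. Sequencing of template-switched cDNA on Illumina gave cleaved and total reads, and DNA sequencing assigned barcodes to variants. Each variant's relative activity is its cleaved/total read fraction divided by the unmutated ribozyme's fraction, averaged across three batches. A variant needed a minimum of 5 reads.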

**Q.** For A15U U54C U66C, which self-cleavage is on record?
**A.** 0.12

**Q.** With A15U U54A A77U U80C as the variant, how does the self-cleavage read?
**A.** 1.19

**Q.** For A15U U54A A57G U67A, which self-cleavage is on record?
**A.** 0.18

**Q.** With G16A A35G U80C as the variant, how does the self-cleavage read?
**A.** 0.92

**Q.** Which self-cleavage does the source give for A15U U58A U66C here?
**A.** 0.12

**Q.** With G16A A21G U41G U54A as the variant, how does the self-cleavage read?
**A.** 0.09

**Q.** Which self-cleavage does the source give for A15U U54A U78C here?
**A.** 0.87

**Q.** For G16A U31A A65G, which self-cleavage is on record?
**A.** 0.13

**Q.** With G16A C17U A64U A77G as the variant, how does the self-cleavage read?
**A.** 0.07

**Q.** With A15U U60C A75U as the variant, how does the self-cleavage read?
**A.** 0.42

**Q.** For G16A C17U C34U A47U U51A A64G U67C, which self-cleavage is on record?
**A.** 0.02

**Q.** Which self-cleavage does the source give for G16A C27A U43C here?
**A.** 0.17

**Q.** For G16C U41C G46U U51G U60C U76A U80C, which self-cleavage is on record?
**A.** 0.17

**Q.** With G16A A57G A75U as the variant, how does the self-cleavage read?
**A.** 0.6

**Q.** With G16C C32U A35G A57G as the variant, how does the self-cleavage read?
**A.** 0.13

**Q.** For G16A C59U U72G, which self-cleavage is on record?
**A.** 0.12

**Q.** With G16A A28G A35U U43C U48C U51A as the variant, how does the self-cleavage read?
**A.** 0.1

**Q.** For G16C A35U A64G U69A U72C, which self-cleavage is on record?
**A.** 0.12

**Q.** With A15U U58C U78C as the variant, how does the self-cleavage read?
**A.** 0.33

**Q.** For G16C G24U U25C G52C, which self-cleavage is on record?
**A.** 0.14

**Q.** Which self-cleavage does the source give for G16C A45U A57G U72C U74A here?
**A.** 0.07

**Q.** Which self-cleavage does the source give for G16C G33A U51A here?
**A.** 0.09

**Q.** With G16A A21G U49C U78C C81U as the variant, how does the self-cleavage read?
**A.** 0.04

**Q.** With G16A G30A G52A G61C U80C C81U as the variant, how does the self-cleavage read?
**A.** 0.07

**Q.** With G16C A56U U80C as the variant, how does the self-cleavage read?
**A.** 0.26

**Q.** For G16A G22U C38U U54C U67C U69A, which self-cleavage is on record?
**A.** 0.05

**Q.** With G16C U54G A77G as the variant, how does the self-cleavage read?
**A.** 0.24

**Q.** Which self-cleavage does the source give for G16A U26C U49C U72C here?
**A.** 0.18

**Q.** For G16C A28G A45U U67C, which self-cleavage is on record?
**A.** 0.11

**Q.** With G16U A18G U43C as the variant, how does the self-cleavage read?
**A.** 0.18

**Q.** Which self-cleavage does the source give for G16C U26C G61U here?
**A.** 0.12

**Q.** For G16A U26A U58C A75G, which self-cleavage is on record?
**A.** 0.1

**Q.** With A15U U69C U78C as the variant, how does the self-cleavage read?
**A.** 0.13

**Q.** With G16A U67A U78C as the variant, how does the self-cleavage read?
**A.** 0.27

**Q.** With A15U U58C U60C as the variant, how does the self-cleavage read?
**A.** 0.12

**Q.** With G16C U25C U26A G42C A64G U66C as the variant, how does the self-cleavage read?
**A.** 0.04

**Q.** With G16C A18G A20U U26A A35G C68U as the variant, how does the self-cleavage read?
**A.** 0.19

**Q.** Which self-cleavage does the source give for A15U U51C U78C here?
**A.** 0.58

**Q.** For G16C A18G G33U G70A, which self-cleavage is on record?
**A.** 0.42

**Q.** For G16A A18U U60C, which self-cleavage is on record?
**A.** 0.17

**Q.** Which self-cleavage does the source give for A15U U74A U76A here?
**A.** 0.91

**Q.** For A15U U60C U67G U80A, which self-cleavage is on record?
**A.** 0.16

**Q.** With G16A A18G U72A as the variant, how does the self-cleavage read?
**A.** 0.16

**Q.** Which self-cleavage does the source give for G16A U41C U58C U78A here?
**A.** 0.32

**Q.** Which self-cleavage does the source give for G16A U43C U48C C81U here?
**A.** 0.17

**Q.** Which self-cleavage does the source give for A15U U60A U67C U74C A75U A77G here?
**A.** 0.06

**Q.** Which self-cleavage does the source give for G16A A56U U69A U78A here?
**A.** 0.07

**Q.** Which self-cleavage does the source give for A15U U72G U76C here?
**A.** 0.89

**Q.** For G16A A18U A21C A45U U66C U80C, which self-cleavage is on record?
**A.** 0.05

**Q.** For G16A U26C U66C, which self-cleavage is on record?
**A.** 0.09

**Q.** With G16A C29A U51A U60C U67C U74C as the variant, how does the self-cleavage read?
**A.** 0.14

**Q.** Which self-cleavage does the source give for G16A G30A U74C here?
**A.** 0.05

**Q.** Which self-cleavage does the source give for G16A A35C U41C A65G here?
**A.** 0.11

**Q.** For A15U U54A C62U U66C U72A, which self-cleavage is on record?
**A.** 0.1

**Q.** Which self-cleavage does the source give for A15U U54C A57G here?
**A.** 0.2

**Q.** With G16U A18G U67C U72C as the variant, how does the self-cleavage read?
**A.** 0.12

**Q.** Which self-cleavage does the source give for G16A A20G U54C U78C here?
**A.** 0.16

**Q.** Which self-cleavage does the source give for A15U U60C C71U here?
**A.** 0.15

**Q.** With G16A U25C G33A U43C as the variant, how does the self-cleavage read?
**A.** 0.17

**Q.** Which self-cleavage does the source give for A15U U67A U72C here?
**A.** 0.25

**Q.** For G16A G24A G61A U69C, which self-cleavage is on record?
**A.** 0.11

**Q.** For G16C U31C U43G G53A A56U U74A, which self-cleavage is on record?
**A.** 0.05

**Q.** With G16A A57G U80C as the variant, how does the self-cleavage read?
**A.** 0.58

**Q.** Which self-cleavage does the source give for G16C A18U C32A U43C here?
**A.** 0.2

**Q.** Which self-cleavage does the source give for G16A A28G U78C here?
**A.** 0.26

**Q.** With G16A G24U U26C A35G U60C as the variant, how does the self-cleavage read?
**A.** 0.12

**Q.** Which self-cleavage does the source give for G16A U26C U48C C79U here?
**A.** 0.23

**Q.** With G16A U26A U69A as the variant, how does the self-cleavage read?
**A.** 0.09

**Q.** For G16A U25C C68U U80C, which self-cleavage is on record?
**A.** 0.19

**Q.** For G16A U25C A28G U31C C37G A47G U78C, which self-cleavage is on record?
**A.** 0.2

**Q.** With G16C G24C A47G as the variant, how does the self-cleavage read?
**A.** 0.2

**Q.** For G16A U31A U54A A56G U78A, which self-cleavage is on record?
**A.** 0.4

**Q.** For A15U U51C U58C A65G, which self-cleavage is on record?
**A.** 0.27

**Q.** Which self-cleavage does the source give for G16A A45C U66C U72A here?
**A.** 0.07

**Q.** Which self-cleavage does the source give for G16A U31G U43C U60C here?
**A.** 0.07

**Q.** For G16C C29U U58C G70A, which self-cleavage is on record?
**A.** 0.12

**Q.** With G16A U26C A45U U60C U74A as the variant, how does the self-cleavage read?
**A.** 0.18

**Q.** With G16C U41C U43C as the variant, how does the self-cleavage read?
**A.** 0.2

**Q.** For A15U U67C U72A U76A, which self-cleavage is on record?
**A.** 0.17

**Q.** Which self-cleavage does the source give for G16A U43A U49C U74G here?
**A.** 0.15

**Q.** Which self-cleavage does the source give for A15U U67A U69A here?
**A.** 0.13

**Q.** With A15U U54G U58C U74C as the variant, how does the self-cleavage read?
**A.** 0.56

**Q.** Which self-cleavage does the source give for A15U U51C U60A A65G here?
**A.** 0.12

**Q.** For G16A U60C U66A, which self-cleavage is on record?
**A.** 0.13
